# Results: the supplement of paper PMC11383711
# The other results are listed elsewhere or left out. Binding of human antibodies (heavy:light variable regions, tested as scFv in one mRNA-display pool) to influenza hemagglutinin, with or without the stem antibody CR9114 bound first. Score = (mean enrichment − median) / interquartile range of that screen; higher = more enriched, 0 = typical non-binder. Active = above the paper's cut-off per screen: stems 28; unblocked H1 Solomon Islands 5, H1 Michigan 3, H3 5, H5 19, H7 2.85, both B 5; blocked 9, 7, H5 10, H7 10, B Phuket 10, B Lee 11.5. Scores are scaled within each screen and are no affinities; replicates correlate at about 0.6 to 0.9, and antibodies rare in the pool are noisier.
# B1: 037-10-5E04 (protein)
# chain 1: QVQLQESGPGLVKPSETLSLTCTVSGTSITTHYWSWIRQTPGKGLEWIGHISSDGTTNFNPSLKSRVTISMDTSKNQFSLNLSSVTAADTAVYYCARDFRERLGHRWEQAFDFWGQGSLVTVSS
# chain 2: DIQMTQSPSSLSASVGDRVTITCRASQSISSSLNWYRQEPGKAPKFLIYIASNLQSGVPSRFSGSGSGTDFTLTISSLQPEDFATYYCQQSYSTPWTFGQGTKVEIK
# B2: 3C11 (protein)
# chain 1: QVQLVQSGAEVKETGESLNISCKVSGNNFPSYYISWVRQMPGNGLEWMGRIDPSDSDTNYRPSFQGHVTISADKSTSTAYLQWRSLKASDTAMYYCARRATYYYGSGSYFDAFDIWGQGTMVTVSS
# chain 2: EIVMTQSPLTLPVTPGAPASISCRSSQSLLHSDGYNYLDWYLQKPGQSPQLLIYLGSHRASGVPDRFSGSGSGTDFTLKISRVEAEDVGVYYCMQALQTPDFGQGTRLEIK
# B3: AG8-2D02 (protein)
# chain 1: VQLVQSGAEVKKPGASVRLSCKASGFRFTNYYFNWVRQAPGQGLEWMGIINPSGGATTYAQKFQGRVTMTRDTSTSTVYMELGSLRSEDTAVYYCARMATLTASYFYSYGMDVWGQGTTVTVSS
# chain 2: EIVLTQSPGTLSLSPGERVTLSCRASQSVSSSYVAWYQQKPGQAPRLLIYAASTRATGIPDRFSGSGSGTDFTLTISRLEPEDFAVYYCQQYGTSPALTFGGGTKVEIK
# B4: 01.g.01 (protein)
# chain 1: EVQLVESGGGLVKPGGSLRLSCAASGFTFSSYSMNWVRQAPGKGLEWVSSISSNSYFIYYADSVKGRFTISRDNAKNSLSLQMNSLRAEDTAIYYCARDAGSTGYDYYFDYWGQGTLVTVSS
# chain 2: EIVMTQSPATLSVSPGERATLSCRASQSVSSNLAWYQQKPGQAPRLLIYGASTRATGIPARFSGSGSGTEFTLTISSLQSEDFAVYYCQHYNNWPPWTFGQGTKVEIK
# B5: R95-1B02 (protein)
# chain 1: QVHLQESGPGLVKPSETLSLTCSVSAGSLTSHFWSWIRQPPGKGLEWIGYIHHSGTTGYNPSLKSRVTISVDTSKNQFSLHLTSVTAADTAVYYCARDGSSTSWYFDFWGRGTLVTVSS
# chain 2: QSALTQPRSVSGSPGQSVTISCTGTASDVGAYDFVSWYRQHPGKAPKLIIYDVSQRPSGVPDRFSGSKSGNTASLTISGLQADDEGDYHCCSYTGTDTSGVFGGGTKLTVL
# B6: W85-1F07 (protein)
# chain 1: QVQLAQSGPEVKKPGTSVKVSCKASGFTFSRAAVQWVRQARGQPLEWMGWIVGGSGKANYAQKFQERVTITRDMSTSTAYMELSSLRSEDTAVYYCAADASGYDLHYYYYYGMDVWGQGTTVTVSS
# chain 2: QSALTQPASVSGSPGQSITISCTGTSSDVGGYDFVSWYQQCPDNAPKLMIYEVSHRPSGVSNRFSGSKSGNTASLTISGLRSEDEADYYCSSYTITNTWVFGGGTKLTVL
# B7: antibody 3C04 (protein)
# chain 1: VQLVQSGAEVKKPGASVKVSCKASGYTFTYHYVYWVRQAPGQGLEWMGWMSPKTGDTNISQRFQGRVTMTRDTSITTAYMEMSRLRFDDTAVYYCTRGQYSDHFDSWGQGTLVTVSS
# chain 2: SYELTQPPSVSVAPGQTAMITCGGNHIGTKSVHWYQQRPGQAPVLVVYDNRVRSSGIPERFSGSNSGNTATLTISRVEAGDEADYYCQVWDSSSDHNVVFGGGTKLTVL
# B8: K77-2F02 (protein)
# chain 1: EVQLVESGGVVVQPGGSVRLSCAASGFTFDDYAMHWVRQAPGKSLEWVSLISWDGGNTYYADSVRARFTISRDNDKNSLYLQINSSRPEDTALYYCARDQGSSWYSGKLGIDYWGQGALVTVSS
# chain 2: DIVMTQTPLSLSVTPGQPASISCKSSHSLLHSDGKTYLYWYLQKPGQSPHLLIYEVSSRFSGVPDRFSGSGSGTDFTLKISRVEAEDVGVYYCMQGMHVPRLTFGGGTKVEIK
# B9: R95-2G10 (protein)
# chain 1: EVQLVESGGGVVHPGGSLRLSCAASGFTFSSYAMHWVRQAPGKGLEGVAFIKYDGTNKYYADSLKGRFTISRDNSKNTLYLQMNSLRADDTAVYYCAKAHNAAVAGLAEYFEHWGQGTLVTVSS
# chain 2: SYELTQPPSVSVAPGQTARITCGGNNIGSKNVHWYQQKPGQAPVLVVHDDSDRPSGIPERFSGSNSGNTATLTISRVEAGDEADYYCQVWDRHSDHFWVFGGGTKLTVL
# B10: AG2-B01 (protein)
# chain 1: VQLVESGGGLIQPGGSLRLSCAVSGFGVSSKYMSWVRQTPGKRLEWVSIIYAGGNTYYGGSLRGRFTISRDTVKNIVFLDMKSLRGEDTAVYYCARGLSNVYPNTFDLWGQGTLVTVSS
# chain 2: DIVMTQSPFSLPVTPGEPAFISCRSSQSLLHTDGYNYVDWYLQRPGQSPQLLIYLASYRASGVPDRFSGSGSGTDFTLRISRVEADDVGIYYCMQPLQAPTFGQGTRLEIK
# B11: R95-1G10 (protein)
# chain 1: EVQLVESGGGSVQPGGSLRLSCAASGFSFSNYWMHWVRQAPGKGLVWVSRVISDGTITSYVDSVEGRFTISRDNAENTLYLQMDSLRAEDTAVYYCARGYSTSSGIWYFDLWGRGTLVTVSS
# chain 2: SYELTQPPSVSVAPGQTARVTCGGDNIGSKSVHWYQQKSGQAPVLVVYDDSDRPSGIPERFSGSNSGNTATLTISRVEAGDEADYYCQVWDSSTDHWVFGGGTKLTVL
# B12: W85-3D10 (protein)
# chain 1: EVQLVESGGGLVQPGGSLRLSCAASGLSVSGNYISWVRQAPGKGLEWVSVMYAGGRKYYADSVKGRFSISRDQSKNTVYLQMDSLRVEDTAVYYCAGTYLEWLDYWGQGTLVAVSS
# chain 2: DIQMTQSPSSLSASVGDRVTITCRASQSISTYLNWYQQRPGRAPKLLIYAASTLQSGVPSRFSGSGSGTDFTLTITGLQPADFATYYCQQTYSSLITFGPGTRVDLK
# Target: Influenza A H1N1 A/Michigan/45/2015 hemagglutinin ectodomain
# Assay: mRNA display binding score; higher = more enriched on the antigen
# Conditions: antigen blocked with: 2 µM CR9114 IgG
# Experimental: (§1)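 A pool of natively paired antibodies, displayed as scFv on mRNA, was selected once on antigen-coated beads and sequenced before and after; two replicates.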
row,Binder,mRNA display binding score
1,B1,active: 50.8
2,B2,inactive: 0.829
3,B3,inactive: 0.5
4,B4,inactive: -0.397
5,B5,inactive: -0.342
6,B6,inactive: -0.324
7,B7,inactive: -0.353
8,B8,inactive: 0.269
9,B9,inactive: -0.0524
10,B10,inactive: 0.0427
11,B11,inactive: -0.115
12,B12,inactive: 0.129

# Same assay, conditions: antigen blocked with: nothing
row,Binder,mRNA display binding score
1,B1,active: 5.69
2,B2,inactive: -0.0543
3,B3,inactive: 1.45
4,B4,inactive: -0.628
5,B5,inactive: 0.894
6,B6,inactive: -0.151
7,B7,inactive: -0.403
8,B8,inactive: 0.85
9,B9,inactive: -0.626
10,B10,inactive: 1.81
11,B11,inactive: -0.125
12,B12,inactive: -0.408

# Target: Influenza A H1N1 A/Solomon Islands/3/2006 hemagglutinin ectodomain
# Assay: as above
# Conditions: antigen blocked with: 2 µM CR9114 IgG
# Experimental: as §1
row,Binder,mRNA display binding score
1,B1,inactive: 0.655
2,B2,inactive: 0.229
3,B3,inactive: 0.654
4,B4,inactive: -0.667
5,B5,inactive: -0.253
6,B6,inactive: 0.0257
7,B7,inactive: -0.755
8,B8,inactive: 0.379
9,B9,inactive: -0.179
10,B10,inactive: 0.663
11,B11,inactive: -0.469
12,B12,inactive: -0.276

# Same assay, conditions: antigen blocked with: nothing
row,Binder,mRNA display binding score
1,B1,inactive: -0.13
2,B2,inactive: -0.375
3,B3,inactive: 0.631
4,B4,inactive: -0.646
5,B5,inactive: 1.21
6,B6,inactive: -0.562
7,B7,inactive: -0.364
8,B8,inactive: 0.658
9,B9,inactive: -0.167
10,B10,inactive: 0.937
11,B11,inactive: -0.374
12,B12,inactive: -0.0914

# Target: Influenza A H3N2 A/Singapore/INFIMH-16-0019/2016 hemagglutinin ectodomain
# Assay: as above
# Conditions: antigen blocked with: nothing
# Experimental: as §1
row,Binder,mRNA display binding score
1,B1,active: 102
2,B2,inactive: -0.433
3,B3,inactive: 0.647
4,B4,inactive: -0.494
5,B5,inactive: 1.12
6,B6,inactive: -0.199
7,B7,inactive: -0.324
8,B8,inactive: 0.634
9,B9,inactive: -0.448
10,B10,active: 5.5
11,B11,inactive: 0.101
12,B12,inactive: 0.372

# Target: Influenza A H5N1 A/Qinghai/1A/2005 hemagglutinin ectodomain
# Assay: as above
# Conditions: antigen blocked with: 2 µM CR9114 IgG
# Experimental: as §1
row,Binder,mRNA display binding score
1,B1,inactive: -0.388
2,B2,active: 26.1
3,B3,inactive: 0.927
4,B4,inactive: -0.781
5,B5,inactive: 0.166
6,B6,inactive: -0.0932
7,B7,inactive: 0.214
8,B8,inactive: 0.0267
9,B9,inactive: 0.884
10,B10,inactive: 2.43
11,B11,inactive: 1.22
12,B12,inactive: -0.456

# Same assay, conditions: antigen blocked with: nothing
row,Binder,mRNA display binding score
1,B1,inactive: -0.0836
2,B2,active: 49.1
3,B3,inactive: 0.797
4,B4,inactive: -0.473
5,B5,inactive: 0.86
6,B6,inactive: -0.191
7,B7,inactive: 0.255
8,B8,inactive: 0.0359
9,B9,inactive: 13.5
10,B10,inactive: 2.7
11,B11,inactive: 1.83
12,B12,inactive: -0.355

# Target: Influenza A H7N9 A/Shanghai/2/2013 hemagglutinin ectodomain
# Assay: as above
# Conditions: antigen blocked with: 2 µM CR9114 IgG
# Experimental: as §1
row,Binder,mRNA display binding score
1,B1,active: 15.7
2,B2,inactive: 0.13
3,B3,inactive: 0.453
4,B4,inactive: -0.525
5,B5,inactive: 0.366
6,B6,inactive: 0.0147
7,B7,inactive: 0.474
8,B8,inactive: 1.31
9,B9,inactive: -0.785
10,B10,inactive: 3.53
11,B11,inactive: -0.131
12,B12,inactive: -0.989

# Same assay, conditions: antigen blocked with: nothing
row,Binder,mRNA display binding score
1,B1,inactive: 0.784
2,B2,inactive: 0.492
3,B3,inactive: 1.82
4,B4,inactive: -0.623
5,B5,inactive: 0.998
6,B6,inactive: -0.028
7,B7,inactive: -0.737
8,B8,inactive: 1.15
9,B9,inactive: -0.492
10,B10,inactive: 2.79
11,B11,inactive: -0.0595
12,B12,inactive: -0.527

# Target: Influenza B/Lee/1940 hemagglutinin ectodomain
# Assay: as above
# Conditions: antigen blocked with: 2 µM CR9114 IgG
# Experimental: as §1
row,Binder,mRNA display binding score
1,B1,inactive: -0.822
2,B2,inactive: -0.827
3,B3,inactive: -0.238
4,B4,inactive: -0.439
5,B5,inactive: -0.434
6,B6,inactive: -0.00685
7,B7,inactive: 0.0255
8,B8,inactive: -0.317
9,B9,inactive: 0.912
10,B10,inactive: 4.19
11,B11,inactive: 2.93
12,B12,inactive: 1.03

# Same assay, conditions: antigen blocked with: nothing
row,Binder,mRNA display binding score
1,B1,inactive: 0.0381
2,B2,inactive: -0.316
3,B3,inactive: 0.133
4,B4,inactive: -0.271
5,B5,inactive: 0.0571
6,B6,inactive: -0.384
7,B7,inactive: 3.16
8,B8,inactive: -0.0443
9,B9,active: 67.7
10,B10,inactive: 0.666
11,B11,active: 25.4
12,B12,inactive: 4.52

# Target: Influenza B/Phuket/3073/2013 hemagglutinin ectodomain
# Assay: as above
# Conditions: antigen blocked with: 2 µM CR9114 IgG
# Experimental: as §1
row,Binder,mRNA display binding score
1,B1,inactive: 0.341
2,B2,inactive: -0.308
3,B3,inactive: 0.317
4,B4,inactive: -0.482
5,B5,inactive: -0.26
6,B6,inactive: -0.0695
7,B7,inactive: 3.35
8,B8,inactive: -0.222
9,B9,inactive: 5.47
10,B10,inactive: 6.16
11,B11,inactive: 4.41
12,B12,inactive: -0.646

# Same assay, conditions: antigen blocked with: nothing
row,Binder,mRNA display binding score
1,B1,inactive: -0.116
2,B2,inactive: -0.00616
3,B3,inactive: 0.193
4,B4,inactive: -0.275
5,B5,inactive: -0.037
6,B6,inactive: -0.426
7,B7,active: 5.98
8,B8,inactive: -0.0517
9,B9,active: 29.5
10,B10,inactive: 1.24
11,B11,active: 10.9
12,B12,inactive: -0.297
